# From PubChem BioAssay AID485281 (National Center for Advancing Translational Sciences (NCATS), 2010)
# The whole screen tested about 350,000 compounds, of which about 260 (0.074%) were called active. The shares of active, inactive and inconclusive entries below differ from those in the screen. Calls come from the whole dose curve; as a rule, active = well fitted inhibition curve with a large enough effect; inconclusive = small, poorly fitted or top-dose-only effect; inactive = no such curve, though single readings can be large or run the other way. Potencies of inconclusive entries are doubtful fits and often do not repeat.
# Biological target: Ferritin light chain (Equus caballus) (UniProt P02791)
# Chain of UniProt P02791 (P02791 whole entry, looked up): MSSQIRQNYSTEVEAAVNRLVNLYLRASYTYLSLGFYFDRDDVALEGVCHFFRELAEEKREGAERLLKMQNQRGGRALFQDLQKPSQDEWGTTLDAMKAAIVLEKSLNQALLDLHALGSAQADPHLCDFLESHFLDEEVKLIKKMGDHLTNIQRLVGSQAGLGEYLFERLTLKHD
# Assay: qHTS Assay for Identification of Novel General Anesthetics; note: nearly all actives have a fitted effect of over 20% in size
# Settings: apoferritin/1-aminoanthracene competitive binding, fluorescence; activity change, negative = displacement: at 77.5 µM (top of the series)
# How it was run: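 Horse-spleen apoferritin (10 uM) was mixed with 50% saturated 1-aminoanthracene in PBS, exposed to compounds for 10 min at room temperature, and read for fluorescence (ex 380 nm, em 535 nm). Competitive displacement was fitted with a four-parameter Hill equation.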
# % is set by controls: 0 for no effect and ±100 for the full control effect; potency is the fitted concentration of half-maximal effect; tags give direction and shape of the fitted curve.
Compound,Potency,"activity change, negative = displacement"
CC(C)CCSc1nc2ccccc2[nH]1,"inconclusive: 10 µM [inhibitor, partial curve]",
O=C(COC(=O)c1cccnc1)c1ccc(Cl)c(Cl)c1,"inconclusive: 28.2 µM [inhibitor, partial curve]",
COc1ccc(/C=N/n2cnnc2SCc2ccc(OC)cc2)cc1,"inconclusive: 56.2 µM [inhibitor, single point]",
COc1cccc(C(=O)Nc2nnc(Cc3ccc(OC)c(OC)c3)s2)c1,inactive,
O=C(CSc1nnc(-c2cc3ccccc3cc2O)n1Cc1ccco1)N1CCc2ccccc2C1,"inconclusive: 3.55 µM [inhibitor, partial curve]",
COc1ccc(C(=O)Nc2ccccc2C(=O)NC(Cc2ccc(O)cc2)C(=O)NNC(=O)c2ccccc2)cc1 (configuration not stated),"inconclusive: 14.1 µM [inhibitor, partial curve, poor fit]",
CCN(CC)S(=O)(=O)c1ccc(O)c(C(=O)OCC(=O)N(C)Cc2ccccc2)c1,"inconclusive: 22.4 µM [inhibitor, partial curve]",
Cc1cc2c(c(=O)n1Cc1ccccc1)C1O[C@](CCCCN3C(=O)c4ccccc4C3=O)(Cc3ccccc31)O2,"inconclusive: 4.47 µM [inhibitor, partial curve]",
O=C(Cc1ccccc1)NC(Nc1ccccc1)C(Cl)(Cl)Cl (configuration not stated),"inconclusive: 35.5 µM [inhibitor, partial curve]",
ON1C(c2ccc(Cl)cc2Cl)N(O)[C@H]2CCCC[C@H]21 (some centres not stated),"inconclusive: 15.8 µM [inhibitor, partial curve]",
Nc1c(C(=O)Nc2ccc3c(c2)OCCO3)nnn1CCc1ccccc1,"inconclusive: 31.6 µM [inhibitor, partial curve]",
CCc1nc(SCC(=O)N2CCN(c3ccccc3)CC2)c2oc3ccccc3c2n1,"inconclusive: 7.08 µM [inhibitor, full curve]",
CCOC(=O)c1cccc2c1-c1ccccc1/C2=N/O,"inconclusive: 50.1 µM [inhibitor, partial curve]",
NC(=O)CC(NC(=O)c1ccccc1)c1ccc(N2CCCCCC2)c([N+](=O)[O-])c1 (configuration not stated),"inconclusive: 17.8 µM [inhibitor, partial curve]",
O=C(CS(=O)c1ccc(C(F)(F)F)cc1[N+](=O)[O-])Oc1ccc(Cl)cc1 (configuration not stated),"inconclusive: 20 µM [inhibitor, partial curve]",
N#CCN1CCN(CCC(=O)Nc2ccc(OCc3ccccc3)cc2)CC1,"inconclusive: 15.8 µM [inhibitor, partial curve]",
CCn1c2ccccc2c2cc(/C=N/NC(=O)c3cc(O)cc(O)c3)ccc21,inactive,
Cc1csc(NC(=O)CSc2ncn(-c3ccccc3)n2)n1,"inconclusive: 31.6 µM [inhibitor, partial curve]",
COc1ccc(-n2c(SCC(=O)Nc3cccc(C)c3C)nc3c([nH]c4ccccc43)c2=O)cc1,inactive,
O=C(CSc1nnc(-c2ccncc2)n1Cc1ccco1)OC1CCCCC1,"inconclusive: 28.2 µM [inhibitor, partial curve]",
Cc1ccn2c(NCc3ccc4c(c3)OCO4)c(-c3ccc(O)cc3)nc2c1,inactive,
CC1Cc2ccccc2N1c1nc(C2CC2)nc2c1nnn2Cc1ccccc1 (configuration not stated),inactive,
CC(C)(C)c1ccc(Oc2ccc(NC(=O)CCC(=O)OCC(=O)c3ccccc3)cc2)cc1,"inconclusive: 31.6 µM [inhibitor, partial curve]",

Compound,Potency,"activity change, negative = displacement"
Cc1cc(C)n(CC(O)Cn2c(C)c(C)c3ccccc32)n1 (configuration not stated),inactive,
COc1ccc(CNCC(O)COc2ccc(C(C)(C)c3ccccc3)cc2)cc1 (configuration not stated),"inconclusive: 35.5 µM [inhibitor, single point]",
CC1=CCC2(CO)COC(c3ccccc3O)C1C2 (configuration not stated),"inconclusive: 35.5 µM [inhibitor, partial curve]",
Cc1ccc(NC(=O)c2ccc(CNS(=O)(=O)c3ccc4c(c3)C(C)(C)C(=O)N4C)cc2)cc1C,"inconclusive: 12.6 µM [inhibitor, partial curve]",
CC(=O)N1c2ccc(S(=O)(=O)NCC3CCC(C(=O)Nc4ccc(C)c(C)c4)CC3)cc2CC1C (configuration not stated),inactive,
O=C(Nc1ccc(Nc2ccccc2)cc1)c1ccc(Cl)c([N+](=O)[O-])c1,"inconclusive: 25.1 µM [inhibitor, partial curve]",
CCOC(=O)C1CCN(S(=O)(=O)c2cnc[nH]2)CC1,inactive,
Cc1ccccc1C(=O)O/N=C(\N)c1ccccc1,inactive,
CSCCC1NC2(C(=O)Nc3c(C)cc(Cl)cc32)[C@@H]2C(=O)N(C3CCCC3)C(=O)[C@H]12 (some centres not stated),"inconclusive: 35.5 µM [inhibitor, partial curve]",
O=C(C[n+]1ccc(C(=O)N/N=C/c2ccc(O)cc2)cc1)c1ccccc1,"inconclusive: 25.1 µM [inhibitor, partial curve]",
CCCc1ccc(OCCNC(=O)c2ccco2)cc1,"inconclusive: 28.2 µM [inhibitor, partial curve]",
N#Cc1c2n(c3c(=O)n(Cc4ccc(Cl)cc4)cnc13)CCCC2,"inconclusive: 35.5 µM [inhibitor, partial curve]",
Cc1cc(C)n2nc(CC(=O)NC3CCCCCC3)nc2n1,"inconclusive: 7.08 µM [inhibitor, full curve]",
COc1ccc(N/C=C/C(=O)c2ccccc2)cc1,inactive,
CC1CN(S(=O)(=O)c2cccc(C(=O)OCC(=O)Nc3ccc4c(c3)OCO4)c2)CC(C)O1 (configuration not stated),"inconclusive: 14.1 µM [inhibitor, partial curve]",
Cc1c(C)n(Cc2ccccc2)c2ccc(C(=O)OCCN(C)C)cc12,"inconclusive: 31.6 µM [inhibitor, partial curve]",
COc1ccc(N2CCN(S(=O)(=O)c3cccc4cccnc34)CC2)cc1,"inconclusive: 39.8 µM [inhibitor, partial curve]",
O=C1C2=C(C(=O)c3ccccc31)C1O[C@](CCCCN3C(=O)c4ccccc4C3=O)(Cc3c1ccc1ccccc31)O2,,inactive: -13.7% [at 15.3 µM]
CCOC(=O)/C(=N/Nc1ccc(Cl)cc1)Sc1nnnn1-c1ccc(C)cc1,inactive,
CCC1CCCCN1c1nc(-c2cccc(OC)c2O)nc2ccccc12 (configuration not stated),"inconclusive: 20 µM [inhibitor, partial curve]",
CCOc1ccc(C2c3c(oc4ccc(C)cc4c3=O)C(=O)N2CCCN(C)C)cc1 (configuration not stated),inactive,
O=C(Nc1ccc(Cl)c(Cl)c1)Nc1ccc(N2CCCC2)c(S(=O)(=O)Nc2ccccc2Cl)c1,inactive,
Cc1cccc(OCC(=O)N/N=C/C=C/c2ccco2)c1,"inconclusive: 56.2 µM [inhibitor, partial curve]",

Compound,Potency,"activity change, negative = displacement"
Cc1ccc(CNC(=O)c2c(C)cc(=O)oc2C)cc1,"inconclusive: 17.8 µM [inhibitor, partial curve]",
O=C(CSC1=NCCS1)Nc1ccnc2ccccc12,inactive,
CC1CCN(C(=O)CCc2nc3cc(S(=O)(=O)N(C)C)ccc3n2C)CC1,"inconclusive: 44.7 µM [inhibitor, single point]",
O=C(NCCN1CCN(c2ccccc2)CC1)c1cccc(Br)c1,"inconclusive: 39.8 µM [inhibitor, single point]",
CCc1nc(SCC(=O)N2CCCCCC2)c2c(=O)n(C)c(=O)n(C)c2n1,"inconclusive: 28.2 µM [inhibitor, partial curve]",
COC(=O)c1cc(C(=O)c2cccc(Cl)c2Cl)cn1C,"inconclusive: 31.6 µM [inhibitor, partial curve]",
Cc1nc(NC(=O)c2c(-c3ccccc3)c(-c3ccccc3)nn(C)c2=O)sc1C,"inconclusive: 20 µM [inhibitor, partial curve]",
Cc1cc(NC(=O)CSc2cn(CCNC(=O)c3ccccc3)c3ccccc23)no1,inactive,
CCCOC(=O)C1C2C=CC(C3CC23)C1C(=O)OCC(=O)c1ccccc1 (configuration not stated),"inconclusive: 25.1 µM [inhibitor, partial curve]",
CCN1CCN(C(c2ccc(SC)cc2)c2c(O)cc(C)n(Cc3ccco3)c2=O)CC1 (configuration not stated),inactive,
O=C(NC(=S)NC1CCCCC1)c1ccc(F)cc1,inactive,
CCCS(=O)(=O)N1CCCC(C(=O)Oc2ccc(C)c(C)c2)C1 (configuration not stated),"inconclusive: 28.2 µM [inhibitor, partial curve]",
CCOc1ccc(NC(=O)C2CCC(N3C(=O)C4CC=CCC4C3=O)CC2)cc1 (configuration not stated),"inconclusive: 31.6 µM [inhibitor, partial curve]",
Cc1ccc(NC(=S)NNc2ccc([N+](=O)[O-])cc2S(=O)(=O)Nc2ccccc2C(=O)O)cc1C,inactive,
CCOc1ccc(C(=O)Oc2cc(C)[nH]c(=O)c2[N+](=O)[O-])cc1,inactive,
Cc1nc(SCC(=O)N2CCc3ccccc32)n[nH]1,"inconclusive: 28.2 µM [inhibitor, partial curve]",
CC(C)(C)OC(=O)NCCc1nnc(SCc2ccccc2Cl)o1,"inconclusive: 31.6 µM [inhibitor, partial curve]",
Cc1cc([N+](=O)[O-])ccc1NC(c1nnc(-c2ccccc2)o1)c1ccccc1F (configuration not stated),"inconclusive: 5.62 µM [inhibitor, full curve, poor fit]",
O=C(COC(=O)c1cccc(S(=O)(=O)NCc2ccccc2)c1)Nc1ccccc1OC(F)F,"inconclusive: 39.8 µM [inhibitor, single point]",
NS(=O)(=O)c1ccc(NCC2COc3ccccc3O2)c([N+](=O)[O-])c1 (configuration not stated),"inconclusive: 12.6 µM [inhibitor, partial curve]",
Cc1nc2ccc(NC(=O)Cc3ccsc3)cc2s1,inactive,
